Experimental data as given in PubChem BioAssay AID1346428 (National Center for Advancing Translational Sciences (NCATS), 2018).
About 1,200 (2.5%) of roughly 48,000 compounds were called active. Inconclusive results (about 2%) are left out.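 Rule for the calls: active = activation of at least 60% and not above a set upper limit (about 1 call in 100 departs from these limits); inconclusive = activation of 40% to 60%, or above that upper limit; inactive = activation under 40%.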 The list shows a part of the results.

Target: Probable G-protein coupled receptor 32 (Homo sapiens) (UniProt O75388)
Test: qHTS for Agonists of Human Resolvin D1 Receptor DRV1; note: 0% is about no effect
Settings: CHO-K1 GPR32 beta-arrestin PathHunter luminescence, 90 min; at 76.9 µM; stronger effect = higher value; zero percent set by DMSO-only wells
Outline: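 Engineered CHO-K1 line co-expressing GPR32-ProLink and EA-beta-arrestin. Compound treatment lasted 90 min at 37 °C. Luminescence was recorded after 1 h with substrate at ambient temperature, relative to DMSO basal wells.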

Sequence of UniProt O75388 (O75388 whole entry, looked up): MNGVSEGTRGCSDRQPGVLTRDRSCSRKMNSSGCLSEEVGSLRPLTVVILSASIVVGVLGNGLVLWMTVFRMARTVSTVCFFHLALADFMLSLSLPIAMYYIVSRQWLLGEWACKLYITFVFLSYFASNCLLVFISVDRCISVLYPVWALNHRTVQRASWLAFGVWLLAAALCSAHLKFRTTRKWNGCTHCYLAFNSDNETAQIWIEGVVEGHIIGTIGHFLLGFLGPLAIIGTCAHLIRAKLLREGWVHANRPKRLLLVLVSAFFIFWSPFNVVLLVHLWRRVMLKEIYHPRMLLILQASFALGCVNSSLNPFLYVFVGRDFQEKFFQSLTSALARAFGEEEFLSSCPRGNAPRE

activation, inactive:
Cc1ccccc1C(=O)Nc1sc2c(c1C(=O)N1CCC(C)CC1)CCC(C)C2 (stereo not given) -24.4%
CCc1cccc(NC(=O)Cn2c(=O)n3nc(-c4cccc(F)c4)nc3c3ccccc32)c1 -10.1%
COc1cccc(Cn2nnc(C(=O)NCc3ccc(Cl)cc3Cl)c2N)c1 1.41%
CCOC(=O)C1CCCN(c2c(C(=O)c3ccccc3)cnc3ccc(F)cc23)C1 (stereo not given) 1.75%
Cc1ccccc1CS(=O)(=O)Cc1ccc(C(=O)NCCc2ccc(Cl)cc2)o1 2.98%
Cc1cn2c(=O)cc(COC(=O)c3ccc(NC(=O)c4ccccc4C)cc3)nc2s1 -1.35%
COc1ccc2c(c1)c1c(c(=O)n(-c3ccc(OC)c(OC)c3)c(=O)n1Cc1ccc(F)cc1)n2C 27.3%
Cc1ccccc1NC(=O)COc1ccc2oc3c(c2c1)CCCC3 -4.47%
CCOC(=O)N1CCC(NC(=O)c2cnn(-c3ccc(OC)cc3)c2C2CCN(C(=O)OC(C)(C)C)CC2)CC1 -6.66%
Cc1ccc(Cn2c(=O)n(-c3cccc(C(F)(F)F)c3)c(=O)c3c(C)c(C)sc32)c(C)c1 5.76%
Cc1ccc(CSc2ncc(Cl)c(C(=O)Oc3ccccc3F)n2)cc1 5.48%
Cc1cn(C)c(CC(=O)Nc2cccc(C#N)c2)c1C(=O)O -5.13%
Cc1ccc(Cn2c(=O)c3cccnc3n(Cc3ccc(C)cc3)c2=O)cc1 -16.3%
COc1ccc(-c2cc3nc(C)c(CCC(=O)NCCc4ccc(Cl)cc4)c(C)n3n2)c(OC)c1 -10.5%
O=C(CN1C(=O)COc2ccc(S(=O)(=O)N3CCCCCC3)cc21)N1CCN(c2ccc(F)cc2)CC1 -1.97%
Cc1ccc(-c2nn3c(=O)cc(CN4CCN(C(=O)Nc5cccc(C(F)(F)F)c5)CC4)nc3s2)cc1 -6.33%
Cc1ccccc1OCCn1cc(C(=O)c2ccco2)c2ccccc21 -8.44%
Cc1ccc(CCNC(=O)c2cnc3c(-c4ccc(F)cc4)c(C)nn3c2C)cc1 -9.16%
Clc1ccc(-c2noc3ncnc(NC4CCCCC4)c23)cc1 28.5%
COc1ccc(OC)c(C2CC(=O)c3c([nH]c(C(=O)OCc4ccc(C)cc4)c3C)C2)c1 (stereo not given) -21.2%
COc1cc(NC(=O)CN2Cc3ccccc3C2=O)cc(OC)c1OC -2.11%
Cc1ccc(-c2nc(CCNC(=O)C(=O)Nc3c(C)cccc3C)cs2)cc1 -17.2%
Cn1c(=O)c2c(c3ccccc31)OC(=O)CC2c1cccc(Cl)c1 (stereo not given) -10.4%
COc1ccccc1/C=C/c1nc(C#N)c(NCC(C)C)o1 1.62%
O=C(Cn1ccc2cc(S(=O)(=O)N3CCCCC3)ccc21)NCc1ccccc1Cl -17.7%
CCOCCn1cnc2sc(C(=O)Nc3ccccc3C(=O)OC)c(C)c2c1=O 4.55%
COc1ccc(N2C(=O)CSC23C(=O)N(Cc2ccc(C)cc2)c2ccccc23)cc1Cl (stereo not given) -34.7%
CCOc1ccc(NC(=O)Cn2nc(Cc3ccncc3)c3ccccc3c2=O)cc1 -15%
CCOc1cccc(CC(=O)N2CCc3c([nH]c4ccccc34)C2c2ccc(SC)cc2)c1OCC (stereo not given) 1.34%
Cc1c(C(=O)NCCO)[n+](=O)c2ccccc2n1[O-] -23%
CC(C)Cn1c(=O)c2ccccc2n2c(CCC(=O)Nc3ccc(F)cc3)nnc12 6.65%
CCCN(CCC)C(=O)c1nn(C)c2c1CSc1ccc(C)cc1-2 14.9%
COc1ccc(-n2ccnc(NCc3ccccc3Cl)c2=O)cc1OC 6.01%
CCOC(=O)c1cc(-c2ccccc2)n(CCCC(=O)Nc2ccccc2C)c1C -26.8%
COc1ccc(C(=O)c2oc3ccccc3c2NC(=O)c2cccc(OC)c2)cc1 -11.4%
COc1ccc(CNC(=O)c2sc3nc4n(c(=O)c3c2C)CCCCC4)cc1 -9.93%
Clc1cccc(C2=NC(c3cccs3)=Nc3ccc(Br)cc3N2)c1 -20.2%
CCc1ccc(NC(=O)CN2C(=O)c3ccccc3Sc3ccc(C(=O)N4CCCC4)cc32)cc1 -18.1%
CCOc1ccccc1CNC(=O)c1cnc2sc(N(CC)CC)nn2c1=O -7.83%
CC(C)CN(CCNC(=O)c1cc(-c2cccs2)nc2ccccc12)CC(C)C -6.31%
Cc1ccc2nc(COc3cccc(NC(=O)c4ccccc4Cl)c3)cc(=O)n2c1 9.76%
CCN(CC)CCOC(=O)c1ccc(Nc2c3c(nc4ccccc24)CCC3)cc1 -0.239%
COc1ccc(CNC(=O)C(CC(C)C)N2Cc3ccccc3C2=O)cc1 (stereo not given) -9.43%
Cc1nc2nc(C)c(NS(=O)(=O)c3ccc(CC(C)C)cc3)c(=O)n2[nH]1 -8.99%
CCOc1ccc(OCC)c(NC(=O)C2CCCN(S(=O)(=O)c3cc(Br)cc4c3N(C(=O)CC)CC4)C2)c1 (stereo not given) -7.59%
CCCc1nnc(NC(=O)Nc2ccccc2Cl)s1 -16.7%
Cc1nn(C(=O)c2c(F)cccc2F)c(C)c1S(=O)(=O)N1CCCCCC1 14.9%
CCn1c(CN2CCOCC2)nc2cc(NC(=O)c3cccc([N+](=O)[O-])c3)ccc21 -12.6%
Cn1c(=O)c2c(-c3ccccc3)n(CCCO)cc2n(C)c1=O -7.27%
COc1ccc(NC(=O)Cn2cc(C(=O)c3ccccc3OC)c(=O)c3ccc(C)nc32)cc1OC 2.27%
Cc1ccc(CN2CCC(CNC(=O)Nc3ccc(C)c(C)c3)C2)cc1 (stereo not given) -16.9%
CC(=O)Nc1nnc2n1CCS2 -6.81%
COc1ccc(C)cc1NC(=O)c1nnn(-c2c(C)cccc2C)c1C -6.24%
CCOC(=O)c1ccc(N2CCN(c3cc(C)ccc3C)CC2)c(NC(=O)Nc2ccc(Cl)cc2)c1 -13.9%
Cc1ccc(C)c(NC(=O)/C(C#N)=C/c2ccc(C(C)C)cc2)c1 20.6%
COc1ccc(C)cc1NC(=O)c1oc2ccc(S(=O)(=O)N3CCC4(CC3)OCCO4)cc2c1C -14.9%
CC(N)C12CC3CC(CC(C3)C1)C2 (stereo not given) 13.4%
CCOc1ccc(C2C(C(=O)Nc3ccccc3C)=C(C)Nc3nnnn32)cc1 (stereo not given) 28%
CC(C)N(C(=O)Cn1cc(SCC(=O)Nc2ccccc2C(F)(F)F)c2ccccc21)C(C)C -13.2%
CCCCc1ccc2nc(NC(=O)OC)[nH]c2c1 14.7%
COc1ccc(-c2nc(SCCOc3ccccc3Cl)n3[nH]c(=O)cc3n2)cc1 24.3%
Cc1cc(C(=O)NCc2ccccc2Cl)c2c(C)nn(-c3ccccc3)c2n1 -14.1%
COc1cc(NC(=O)CSc2ncccc2C(=O)OC(C)C)cc(OC)c1 -0.309%
COc1ccc(CCNC(=O)CS(=O)Cc2nc(-c3ccccc3F)oc2C)cc1OC (stereo not given) 4.45%
CCN1C(C(=O)c2ccccc2)=C(OC(=O)c2ccccc2OC)c2ccccc2S1(=O)=O -30.6%
CC(=O)c1cc2c(cc1N/C(=N/S(=O)(=O)c1ccc(C)cc1)c1ccc(F)cc1)OCO2 -21.7%
O=S1(=O)c2ccccc2N(Cc2cccc(Cl)c2)c2ccccc21 -24.2%
COc1cccc(CNC(=O)C2CCN(c3nnc(-n4c(C)ccc4C)s3)CC2)c1OC -21.9%
CCOc1ccc(-c2nc(CSCC(=O)NCc3ccc(Cl)cc3)c(C)o2)cc1 -2.17%
CCN(CC)CCNC(=O)c1ccc2c(=O)n3nc(Nc4ccccc4OC)sc3nc2c1 49.4%
Cc1c(C(=O)N2CCN(c3ccccc3)CC2)sc2nc3n(c(=O)c12)CCC3 -5.39%
CC(C)CCNC(=O)CN1C(=O)CSc2ccc(S(=O)(=O)N3CCCCC3)cc21 -16.2%
COc1ccc(CCNC(=O)c2ccc3c(c2)ncn3-c2ccc(C)cc2C)cc1OC -1.27%
CCc1ccc(S(=O)(=O)c2nnn3c2nc(NC(C)C)c2sccc23)cc1 -11.1%
CCOC(=O)c1c(-c2ccc(C)cc2)csc1NC(=O)c1nc(SC(C)C)ncc1Cl 1.6%
CCc1ccccc1NC(=O)C1CCCN(C(=O)c2cnn(-c3ccccc3)c2-n2cccc2)C1 (stereo not given) 35.1%
Cc1ccc(NC(=O)c2ccc(-n3c(C)nnc3C)cc2)cc1F -1.09%
COc1ccc(S(=O)(=O)N2CCN(Cc3nc4ccc(C)cc4o3)CC2)cc1Cl -12.1%
CCC(C(=O)NCCc1ccccc1)n1nc(C)n2c(cc3sccc32)c1=O (stereo not given) -8.9%
CCCc1nc(SCc2cc(=O)c3ccc(C)c(C)c3[nH]2)n[nH]1 -1.94%
CCc1cc2c(cc3c(=O)n(CC(=O)NC4CCC(C)CC4)ncn32)s1 (stereo not given) -8.79%
Cc1ccc(-c2cc(C(F)(F)F)n3nc(C(=O)NCC45CC6CC(CC(C6)C4)C5)cc3n2)cc1 -9.03%
CCOc1ccc(N2CC(NC(=O)c3ccc(S(=O)(=O)N4CCCCC4)cc3)CC2=O)cc1 (stereo not given) 11.6%
CCOc1ccccc1NC(=O)c1c(NC(=O)c2cccc(C)c2)sc2c1CCC2 -16.6%
COc1cc(OC)c(NS(=O)(=O)c2ccc3c(c2)CCCN3C(C)=O)cc1Cl 33%
